The name of at least one read-out is uncertain.
System: male Sprague-Dawley rats
Experiment: in vivo screen APCC, cholesterol-fed rats, blood cholesterol
Conditions: Table 2, dosed at 30 mg/kg unless otherwise noted, high fat, high cholesterol diet with 0.5% cholic acid overnight, blood cholesterol vs vehicle
Text: In one in vivo screen designated APCC, male Sprague-Dawley rats (200 to 225 g) were randomly divided into treatment groups and dosed at 4 PM with either vehicle (CMC/Tween) or suspensions of compounds in vehicle. The normal chow diet was then replaced with a high fat, high cholesterol diet with 0.5% cholic acid. The rats consumed this diet ad libitum during the night and were sacrificed at 8 AM to obtain blood samples for cholesterol analysis using standard procedures. Statistical differences between mean cholesterol values for the same vehicle were determined using analysis of variance followed by Fisher's least significant test.

Row | SMILES | APCC (% ΔTC)
1 | CCCCCCCCCCCCn1nnc(CC(=O)Nc2c(C(C)C)cccc2C(C)C)n1 [Example 1, N-[2,6-Bis(1-methylethyl)phenyl]-2-dodecyl-2H-tetrazole-5-acetamide] | -64%
2 | CCCCCCCCCCCCn1nnnc1CC(=O)Nc1c(C(C)C)cccc1C(C)C [Example 2, N-[2,6-Bis(1-methylethyl)phenyl]-1-dodecyl-1H-tetrazole-5-acetamide] | -32%
3 | CCCCCCCCCCCCn1nnc(CC(=O)Nc2c(OC)ncnc2OC)n1 [Example 3, N-(4,6-dimethoxy-5-pyrimidinyl)-2-dodecyl-2H-tetra-zole-5-acetamide] | -39%
4 | CCCCCCCCCCCCn1nnc(CC(=O)Nc2c(OC)cc(OC)cc2OC)n1 [Example 5, 2-dodecyl-N-(2,4,6-trimethoxyphenyl)-2H-tetrazole-5-acetamide] | -60%
5 | CCCCCCCCCCCCn1nnnc1CC(=O)Nc1c(OC)cc(OC)cc1OC [Example 6, 1-dodecyl-N-(2,4,6-trimethoxyphenyl)-1H-tetrazole-5-acetamide] | -37%
6 | CCCCCCCCCCCCn1nnc(CC(=O)Nc2ncccc2C)n1 [Example 7, 2-dodecyl-N-(3-methyl-2-pyridinyl)-2H-tetrazole-5-acetamide] | -1%
7 | CCCCCCCCCCCCn1nnc(CC(=O)Nc2ccc(F)cc2F)n1 [Example 9, N-(2,4-difluoro-phenyl)-2-dodecyl-2H-tetrazole-5-acetamide] | -44%
8 | CCCCCCCCCCCCn1nnc(CC(=O)Nc2c(C)nn(C)c2C)n1 [Example 11, 2-dodecyl-N-(1,3,5-trimethyl-1H-pyrazol-4-yl)-2H-tetrazole-5-acetamide] | -41%
9 | CCCCCCCCCCCCn1nnc(C(C)(C)C(=O)Nc2c(OC)cc(OC)cc2OC)n1 [Example 27, 2-Dodecyl-α,α-dimethyl-N-(2,4,6-trimethoxyphenyl)-2H-tetrazole-5-acetamide] | -69%
10 | CCCCCCCCCCCCn1nnc(C2(C(=O)Nc3c(OC)cc(OC)cc3OC)CCCC2)n1 [Example 29, 1-(2-Dodecyl-2H-tetrazol-5-yl)-N-(2,4,6-trimethoxyphenyl)cyclopentanecarboxamide] | -56%
11 | CCCCCCCCCCCCCn1nnc(C(C)(C)C(=O)Nc2c(OC)cc(OC)cc2OC)n1 [Example 33, 2-Tridecyl-α,α-dimethyl-N-(2,4,6-trimethoxyphenyl)-2H-tetrazole-5-acetamide] | -55%
12 | CCCCCCCCCCCCn1nnc(CCC(=O)Nc2c(OC)cc(OC)cc2OC)n1 [Example 34, 2-Dodecyl-N-(2,4,6-trimethoxyphenyl)-2H-tetrazole-5-propanamide] | -22%
13 | CCCCCCCCCCCCn1nnc(CCC(=O)Nc2c(C(C)C)cccc2C(C)C)n1 [Example 35, N-(2,6-Bis(1-methylethyl)phenyl)-2-dodecyl-2H-tetrazole-5-propanamide] | -60%
14 | CCCCCCCCCCCCn1nnc(CCC(=O)Nc2ccc(F)cc2F)n1 [Example 36, N-(2,4-Difluorophenyl)-2-dodecyl-2H-tetrazole-5-propanamide] | -13%
15 | CCCCCCCCCCCCn1nnnc1CCC(=O)Nc1c(OC)cc(OC)cc1OC [Example 37, 1-Dodecyl-N-(2,4,6-trimethoxyphenyl)-1H-tetrazole-5-propanamide] | -17%
16 | CCCCCCCCCCCCn1nnc(C(C(=O)Nc2c(C(C)C)cccc2C(C)C)(c2ccccc2)c2ccccc2)n1 [Example 46, N-[2,6-Bis(1-methylethyl)phenyl]-2-dodecyl-α,α-diphenyl-2H-tetrazole-5-acetamide] | +4%
17 | CCCCCCCCCCCCCCn1nnc(CCC(=O)Nc2c(OC)cc(OC)cc2OC)n1 [Example 47, 2-tetradecyl-N-(2,4,6-tri-methoxyphenyl)-2H-tetrazole-5-propanamide] | -4%
18 | CCCCCCCCCCCCCCn1nnc(CC(=O)Nc2c(OC)cc(OC)cc2OC)n1 [Example 49, 2-tetradecyl-N-(2,4,6-tri-methoxyphenyl)-2H-tetrazole-5-acetamide] | -51%
